From publication PMC9911399, “Two distinct binding modes provide the RNA-binding protein RbFox with extraordinary sequence specificity” come the findings set out here.

Substitutions are numbered along the chain they refer to; changes in the protein carry UniProt numbers. The list shows a part of the results.

T1: RBFOX1 RRM RbFoxmut (Fox-RRM*) (Homo sapiens, UniProt Q9NWB1 109-208, R118D;E147R;N151S;E152T)
T1 sequence: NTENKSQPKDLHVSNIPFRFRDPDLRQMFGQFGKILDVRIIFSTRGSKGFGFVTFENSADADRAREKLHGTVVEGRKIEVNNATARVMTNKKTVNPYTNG

B1: GAGAGGG (DNA:RNA)
RNA: GGGAGACCGGAAUUCAGAUUGUCCGAGAGGGUUAAAUCCCGUCGUAGCCACCA
DNA 1: CAATCTGAATTCCGGTCTCCC
DNA 2: TGGTGGCTACGACGGGATT
B2: CGGGAAC (DNA:RNA)
RNA: B1 RNA with G25C, A26G, A28G, G29A, G30A, G31C
DNA 1: CAATCTGAATTCCGGTCTCCC
DNA 2: TGGTGGCTACGACGGGATT
B3: GAGACUA (DNA:RNA)
RNA: B1 RNA with G29C, G30U, G31A
DNA 1: CAATCTGAATTCCGGTCTCCC
DNA 2: TGGTGGCTACGACGGGATT
B4: ACUGACC (DNA:RNA)
RNA: GGGAGACCGGAAUUCAGAUUGUCCACUGACCUUAAAUCCCGUCGUAGCCACCA
DNA 1: CAATCTGAATTCCGGTCTCCC
DNA 2: TGGTGGCTACGACGGGATT
B5: CACUGCG (DNA:RNA)
RNA: B1 RNA with G25C, G27C, A28U, G30C
DNA 1: CAATCTGAATTCCGGTCTCCC
DNA 2: TGGTGGCTACGACGGGATT
B6: UUUACAA (DNA:RNA)
RNA: B4 RNA with A25U, C26U, G28A, A29C, C30A, C31A
DNA 1: CAATCTGAATTCCGGTCTCCC
DNA 2: TGGTGGCTACGACGGGATT
B7: UCCCAUA (DNA:RNA)
RNA: B4 RNA with A25U, U27C, G28C, C30U, C31A
DNA 1: CAATCTGAATTCCGGTCTCCC
DNA 2: TGGTGGCTACGACGGGATT
B8: UCGCGUG (DNA:RNA)
RNA: B1 RNA with G25U, A26C, A28C, G30U
DNA 1: CAATCTGAATTCCGGTCTCCC
DNA 2: TGGTGGCTACGACGGGATT
B9: UUGGGAC (DNA:RNA)
RNA: B4 RNA with A25U, C26U, U27G, A29G, C30A
DNA 1: CAATCTGAATTCCGGTCTCCC
DNA 2: TGGTGGCTACGACGGGATT
B10: ACUUCGU (DNA:RNA)
RNA: B4 RNA with G28U, A29C, C30G, C31U
DNA 1: CAATCTGAATTCCGGTCTCCC
DNA 2: TGGTGGCTACGACGGGATT
B11: CUCUUAG (DNA:RNA)
RNA: B1 RNA with G25C, A26U, G27C, A28U, G29U, G30A
DNA 1: CAATCTGAATTCCGGTCTCCC
DNA 2: TGGTGGCTACGACGGGATT
B12: ACACAGG (DNA:RNA)
RNA: B4 RNA with U27A, G28C, C30G, C31G
DNA 1: CAATCTGAATTCCGGTCTCCC
DNA 2: TGGTGGCTACGACGGGATT
B13: GAUACAU (DNA:RNA)
RNA: B1 RNA with G27U, G29C, G30A, G31U
DNA 1: CAATCTGAATTCCGGTCTCCC
DNA 2: TGGTGGCTACGACGGGATT
B14: UGGAAAA (DNA:RNA)
RNA: B1 RNA with G25U, A26G, G29A, G30A, G31A
DNA 1: CAATCTGAATTCCGGTCTCCC
DNA 2: TGGTGGCTACGACGGGATT
B15: UCUUGGC (DNA:RNA)
RNA: B4 RNA with A25U, G28U, A29G, C30G
DNA 1: CAATCTGAATTCCGGTCTCCC
DNA 2: TGGTGGCTACGACGGGATT
B16: GGAUACA (DNA:RNA)
RNA: B4 RNA with A25G, C26G, U27A, G28U, C31A
DNA 1: CAATCTGAATTCCGGTCTCCC
DNA 2: TGGTGGCTACGACGGGATT
B17: GCAGGUG (DNA:RNA)
RNA: B1 RNA with A26C, G27A, A28G, G30U
DNA 1: CAATCTGAATTCCGGTCTCCC
DNA 2: TGGTGGCTACGACGGGATT
B18: UCGUCCC (DNA:RNA)
RNA: B4 RNA with A25U, U27G, G28U, A29C
DNA 1: CAATCTGAATTCCGGTCTCCC
DNA 2: TGGTGGCTACGACGGGATT
B19: CUCGGCU (DNA:RNA)
RNA: B4 RNA with A25C, C26U, U27C, A29G, C31U
DNA 1: CAATCTGAATTCCGGTCTCCC
DNA 2: TGGTGGCTACGACGGGATT
B20: UGUCGCG (DNA:RNA)
RNA: B4 RNA with A25U, C26G, G28C, A29G, C31G
DNA 1: CAATCTGAATTCCGGTCTCCC
DNA 2: TGGTGGCTACGACGGGATT
B21: CCCGCAU (DNA:RNA)
RNA: B4 RNA with A25C, U27C, A29C, C30A, C31U
DNA 1: CAATCTGAATTCCGGTCTCCC
DNA 2: TGGTGGCTACGACGGGATT
B22: GGAGAUG (DNA:RNA)
RNA: B4 RNA with A25G, C26G, U27A, C30U, C31G
DNA 1: CAATCTGAATTCCGGTCTCCC
DNA 2: TGGTGGCTACGACGGGATT
B23: GGAUGUG (DNA:RNA)
RNA: B1 RNA with A26G, G27A, A28U, G30U
DNA 1: CAATCTGAATTCCGGTCTCCC
DNA 2: TGGTGGCTACGACGGGATT
B24: ACUUUCA (DNA:RNA)
RNA: B4 RNA with G28U, A29U, C31A
DNA 1: CAATCTGAATTCCGGTCTCCC
DNA 2: TGGTGGCTACGACGGGATT
B25: CAGUUGG (DNA:RNA)
RNA: B1 RNA with G25C, A28U, G29U
DNA 1: CAATCTGAATTCCGGTCTCCC
DNA 2: TGGTGGCTACGACGGGATT
B26: CUAGUAU (DNA:RNA)
RNA: B4 RNA with A25C, C26U, U27A, A29U, C30A, C31U
DNA 1: CAATCTGAATTCCGGTCTCCC
DNA 2: TGGTGGCTACGACGGGATT
B27: CUUAAAA (DNA:RNA)
RNA: B4 RNA with A25C, C26U, G28A, C30A, C31A
DNA 1: CAATCTGAATTCCGGTCTCCC
DNA 2: TGGTGGCTACGACGGGATT
B28: AGCAACU (DNA:RNA)
RNA: B4 RNA with C26G, U27C, G28A, C31U
DNA 1: CAATCTGAATTCCGGTCTCCC
DNA 2: TGGTGGCTACGACGGGATT
B29: UGCCAGA (DNA:RNA)
RNA: B4 RNA with A25U, C26G, U27C, G28C, C30G, C31A
DNA 1: CAATCTGAATTCCGGTCTCCC
DNA 2: TGGTGGCTACGACGGGATT
B30: AGUAAUA (DNA:RNA)
RNA: B4 RNA with C26G, G28A, C30U, C31A
DNA 1: CAATCTGAATTCCGGTCTCCC
DNA 2: TGGTGGCTACGACGGGATT
B31: UUAUUCA (DNA:RNA)
RNA: B4 RNA with A25U, C26U, U27A, G28U, A29U, C31A
DNA 1: CAATCTGAATTCCGGTCTCCC
DNA 2: TGGTGGCTACGACGGGATT

The target in the test is T1, RBFOX1 RRM RbFoxmut (Fox-RRM*). Description: EMSA; HiTS-Eq, 1 nM pool, 10 min; buffer printed only for the single-RNA assays: 10 mM Tris pH 7.5, 150 mM NaCl, 3.4 mM EDTA, 0.001% NP-40, 30 C. To be noted: tags: His6 N-terminal (pET28a); label: 5' 32P. The method in brief:
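Purified RbFox RRM, wild type or mutant, was incubated for 10 min in 50 µL with 1 nM of a 5′-radiolabelled RNA pool carrying 7 randomized nucleotides, whose flanks were annealed to DNA oligonucleotides, over a series of increasing protein concentrations. Unbound RNA was resolved on 8% native PAGE, cut out, reverse-transcribed, barcoded by PCR and sequenced on an Illumina HiSeq 2500. Relative association constants were derived from changes in read counts for each RNA species versus the control reaction and normalised to the cognate motif.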
On to B1, for which the binding signal is 0.0626 KA relative to UGCAUGU.

Consider B2, for which the binding signal was 0.0826 KA relative to UGCAUGU.

For the molecule B3, the binding signal is 0.0787 KA relative to UGCAUGU.

On to B4, for which the binding signal is 0.0842 KA relative to UGCAUGU.

Consider B5, for which the binding signal is 0.126 KA relative to UGCAUGU.

As to B6, the binding signal was 0.0641 KA relative to UGCAUGU.

With B7, the binding signal was 0.0976 KA relative to UGCAUGU.

B8: the binding signal was 0.153 KA relative to UGCAUGU.

B9: the binding signal was 0.0762 KA relative to UGCAUGU.

With B10, the binding signal was 0.112 KA relative to UGCAUGU.

In the case of B11, the binding signal is 0.175 KA relative to UGCAUGU.

Take B12: the binding signal is 0.105 KA relative to UGCAUGU.

Take B13: the binding signal is 0.0777 KA relative to UGCAUGU.

Consider B14, for which the binding signal is 0.0695 KA relative to UGCAUGU.

B15: the binding signal was 0.106 KA relative to UGCAUGU.

As for B16, the binding signal was 0.0831 KA relative to UGCAUGU.

Take B17: the binding signal is 0.123 KA relative to UGCAUGU.

Consider B18, for which the binding signal was 0.0463 KA relative to UGCAUGU.

In the case of B19, the binding signal is 0.0859 KA relative to UGCAUGU.

In the case of B20, the binding signal was 0.151 KA relative to UGCAUGU.

As for B21, the binding signal was 0.0703 KA relative to UGCAUGU.

For B22, the binding signal is 0.312 KA relative to UGCAUGU.

B23: the binding signal was 0.451 KA relative to UGCAUGU.

Consider B24, for which the binding signal was 0.0925 KA relative to UGCAUGU.

On to B25, for which the binding signal was 0.108 KA relative to UGCAUGU.

With B26, the binding signal is 0.134 KA relative to UGCAUGU.

Consider B27, for which the binding signal was 0.109 KA relative to UGCAUGU.

Turning to B28, the binding signal is 0.0677 KA relative to UGCAUGU.

With B29, the binding signal is 0.116 KA relative to UGCAUGU.

As to B30, the binding signal is 0.135 KA relative to UGCAUGU.

With B31, the binding signal is 0.106 KA relative to UGCAUGU.
